Experimental data as given in the supplement of paper PMC8512760.
The list shows a part of the results. Many values rest on one well or one pass, so single values are uncertain.

Key:
Test in all cases: cell viability relative to vehicle (% of vehicle); basal-like triple-negative breast cancer lines; higher = less cytotoxic
Conditions in all cases: 10 µM; 72 h
HCC-1143 = system: HCC-1143
HCC-1187 = system: HCC-1187
MDA-468 = system: MDA-468
SUM-149 = system: SUM-149
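Also: stably firefly luciferase-GFP labeled cells in 96-well plates, viability read as luciferase photon flux after d-luciferin addition, treated wells normalized to vehicle wells, single-dose high-throughput screen.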

Structure (SMILES) | cell viability (HCC-1143) | cell viability (HCC-1187) | cell viability (MDA-468) | cell viability (SUM-149)
CN(C)CCCN1c2ccccc2CCc2ccccc21.Cl [Imipramine (hydrochloride)] | 73.9 | 86 | 99.4 | 83.2
C#CCNC1CCc2ccccc21.CS(=O)(=O)O (stereo not drawn) [Rasagiline Mesylate] | 105 | 71.5 | 97.4 | 83.3
CCCCC(C)(O)C/C=C/[C@H]1[C@H](O)CC(=O)[C@@H]1CCCCCCC(=O)OC (mixture of isomers) [Misoprostol] | 76.8 | 100 | 115 | 106
[I-].[K+] [Potassium Iodide] | 77.7 | 91.5 | 102 | 100
O=NN(CCCl)C(=O)NCCCl [Carmustine] | 135 | 90.8 | 81.6 | 121
S=c1nc[nH]c2nc[nH]c12 [Mercaptopurine (6-MP)] | 72.2 | 71.3 | 74.5 | 156
CCc1cccc2c3c([nH]c12)C(CC)(CC(=O)O)OCC3 (stereo not drawn) [Etodolac] | 87.4 | 78.8 | 101 | 106
CCCc1nc2c(C)cc(-c3nc4ccccc4n3C)cc2n1Cc1ccc(-c2ccccc2C(=O)O)cc1 [Telmisattan] | 73.6 | 88.4 | 107 | 128
O=C1Nc2ccc(Cl)cc2C(C#CC2CC2)(C(F)(F)F)O1 (stereo not drawn) [Efavirenz] | 86.9 | 85.9 | 134 | 122
CCCN(CCC)CCc1cccc2c1CC(=O)N2.Cl [Ropinirole HCl] | 80.3 | 85.3 | 114 | 119
Oc1ccc(OCc2ccccc2)cc1 [Monobenzone] | 147 | 150 | 171 | 144
CC(=O)O[C@H]1Cc2ccccc2N(C(N)=O)c2ccccc21 [Eslicarbazepine acetate] | 73.3 | 82.8 | 119 | 102
CNCC(O)c1ccc(O)c(O)c1.O=C(O)C(O)C(O)C(=O)O (stereo not drawn) [Epinephrine Bitartrate] | 89.4 | 101 | 167 | 113
CCC1C(=O)N(C)c2cnc(Nc3ccc(C(=O)NC4CCC(N5CCN(CC6CC6)CC5)CC4)cc3OC)nc2N1C(C)C (stereo not drawn) [BI6727 (Volasertib)] | 79.2 | 90.9 | 104 | 102
Cc1nc2n(c(=O)c1CCN1CCC(c3noc4cc(F)ccc34)CC1)CCCC2 [Risperidone] | 77.3 | 102 | 123 | 117
CC(=O)O[C@H]1C(=O)[C@@]2(C)[C@H]([C@H](OC(=O)c3ccccc3)[C@]3(O)C[C@H](OC(=O)[C@H](O)[C@@H](NC(=O)c4ccccc4)c4ccccc4)C(C)=C1C3(C)C)[C@]1(OC(C)=O)CO[C@@H]1C[C@@H]2O [Paclitaxel (Taxol)] | 53.9 | 34.8 | 33.8 | 62.4
COc1ccccc1N1CCN(CC(O)COc2cccc3ccccc23)CC1 (stereo not drawn) [Naftopidil] | 76.6 | 92.9 | 107 | 95.4
CO[C@@]12[C@H](COC(N)=O)C3=C(C(=O)C(C)=C(N)C3=O)N1C[C@@H]1N[C@@H]12 [Mitomycin C] | 32.7 | 15.3 | 26.3 | 32.6
CN1CCC(=C2c3ccccc3CC(=O)c3sccc32)CC1.O=C(O)C=CC(=O)O [Ketotifen Fumarate] | 87 | 111 | 101 | 103
CC(=O)O[C@H]1C[C@@]2(C)[C@@H](C[C@@H](O)[C@H]3[C@@]4(C)CC[C@@H](O)[C@@H](C)[C@@H]4CC[C@@]32C)/C1=C(\CCC=C(C)C)C(=O)[O-].[Na+] [Fusidic Acid (sodium salt)] | 69 | 97 | 111 | 68.9
CCc1c2c(nc3ccc(OC(=O)N4CCC(N5CCCCC5)CC4)cc13)-c1cc3c(c(=O)n1C2)COC(=O)C3(O)CC (stereo not drawn) [Irinotecan] | 112 | 54.1 | 76.3 | 119
Clc1ccc(C(Cn2ccnc2)OCc2c(Cl)cccc2Cl)c(Cl)c1.O=[N+]([O-])O (stereo not drawn) [Isoconazole nitrate] | 122 | 108 | 98.4 | 105
CCCCCCCCCCCC1=C(O)C(=O)C=C(O)C1=O [Embelin] | 56.2 | 86.2 | 113 | 94.6
CNC(C)C1CCC(N)C(OC2C(N)CC(N)C(OC3OCC(C)(O)C(NC)C3O)C2O)O1.O=S(=O)(O)O (stereo not drawn) [Gentamycin Sulfate] | 111 | 90.9 | 87.5 | 70.3
Cl.O=C(CCCN1CCC(O)(c2ccc(Cl)cc2)CC1)c1ccc(F)cc1 [Haloperidol hydrochloride] | 101 | 80.2 | 132 | 95.7
COc1ccc2c(c1)c(CC(=O)OCC(=O)O)c(C)n2C(=O)c1ccc(Cl)cc1 [Acemetacin] | 84.7 | 72.2 | 94 | 110

Structure (SMILES) | cell viability (HCC-1143) | cell viability (HCC-1187) | cell viability (MDA-468) | cell viability (SUM-149)
Nc1ncnc2c1ncn2C1OC(CO)C(O)C1O (stereo not drawn) [Adenosine] | 79.5 | 85.5 | 114 | 132
O=C1OC(C(O)CO)C([O-])=C1O.[Na+] (stereo not drawn) [Sodium ascorbate] | 78.8 | 107 | 113 | 93.5
C[N+](C)(C)CCOC(=O)CCC(=O)OCC[N+](C)(C)C.O.O.[Cl-].[Cl-] [Succinylcholine Chloride Dihydrate] | 77.8 | 88.5 | 93.4 | 94.4
Cc1cc(C2CCCCC2)n(O)c(=O)c1 [Ciclopirox] | 58.7 | 50.7 | 31.6 | 7.88
C[N+]1(C)[C@@H]2C[C@@H](OC(=O)C(O)(c3cccs3)c3cccs3)C[C@H]1[C@@H]1O[C@@H]12.[Br-] [Tiotropium Bromide] | 102 | 72.5 | 87.1 | 105
Cc1cc(Nc2cc(N3CCN(C)CC3)nc(Sc3ccc(NC(=O)C4CC4)cc3)n2)n[nH]1 [VX-680 (MK-0457,Tozasertib)] | 93.2 | 26.1 | 64.9 | 155
O=CC(O)C(O)C(O)CO (stereo not drawn) [Xylose] | 96.7 | 109 | 103 | 93.7
CCOC(=O)C1=C(COCCN)NC(C)=C(C(=O)OC)C1c1ccccc1Cl.O=S(=O)(O)c1ccccc1 (stereo not drawn) [Amlodipine Besylate] | 89.7 | 73.7 | 95.2 | 87.4
COC(=O)C1=COC(OC2OC(CO)C(O)C(O)C2O)C2C(CO)=CCC12 (stereo not drawn) [Geniposide] | 72.4 | 78.4 | 119 | 112
Cl.c1ccc(CN(CC2=NCCN2)c2ccccc2)cc1 [Antazoline HCl] | 97.8 | 100 | 104 | 114
O=C([C@H](CCC/N=C(N)/N)NS(=O)(C1=C2NC[C@H](C)CC2=CC=C1)=O)N3[C@@H](C(O)=O)C[C@H](C)CC3 [Argatroban] | 85.1 | 98.5 | 89.5 | 94.7
COc1cc(C2c3cc4c(cc3C(OC3OC5COC(C)OC5C(O)C3O)C3COC(=O)C23)OCO4)cc(OC)c1O (stereo not drawn) [Etoposide] | 94.2 | 47.9 | 58.9 | 82.5
CN(C)C(=O)c1cc2cnc(Nc3ccc(N4CCNCC4)cn3)nc2n1C1CCCC1 | 107 | 113 | 163 | 151
COc1cc(CNC(=O)CCCCC=CC(C)C)ccc1O [Capsaicin] | 88.6 | 104 | 83.8 | 113
Nc1ccn(C2OC(CO)C(O)C2O)c(=O)n1 (stereo not drawn) [Cytarabine] | 74.3 | 76.1 | 79.1 | 191
Nc1ccc2cc3ccc([NH3+])cc3nc2c1.Nc1ccc2cc3ccc([NH3+])cc3nc2c1.O=S(=O)([O-])[O-] [Proflavine Hemisulfate] | 27.7 | 24.1 | 27.2 | 101
Cl.OC(c1cc(C(F)(F)F)nc2c(C(F)(F)F)cccc12)C1CCCCN1 (stereo not drawn) [Mefloquine hydrochloride] | 86.5 | 30.4 | 46.9 | 85.2
CC(C)NCC(O)c1ccc(O)c(O)c1.Cl (stereo not drawn) [Isoprenaline HCl] | 101 | 101 | 144 | 89.8
Oc1c(Cl)cc(Cl)c2cccnc12 [Chloroxine] | 69.1 | 64.4 | 54.2 | 10.6
CC12CCC3c4ccc(O)cc4CC(CCCCCCCCCS(=O)CCCC(F)(F)C(F)(F)F)C3C1CCC2O (stereo not drawn) [Fulvestrant] | 98.8 | 84.4 | 67.3 | 101
Cl.Nc1c2c(nc3ccccc13)CCCC2 [Tacrine hydrochloride] | 58.3 | 76.1 | 109 | 100
Cn1cnc2c(F)c(Nc3ccc(Br)cc3Cl)c(C(=O)NOCCO)cc21 [AZD6244 (Selumetinib)] | 119 | 59.2 | 114 | 102
CCCC(CCC)C(=O)O.CCCC(CCC)C(=O)[O-].[Na+] [Divalproex Sodium] | 95.5 | 95.9 | 108 | 133
CCn1cc(C(=O)O)c(=O)c2cc(F)c(N3CCNCC3)nc21 [Enoxacin (Penetrex)] | 63.5 | 82.6 | 76.9 | 153
CCN(CC)C(=O)C1(c2ccccc2)CC1CN.Cl (stereo not drawn) [Milnacipran HCl] | 96 | 103 | 110 | 113
N[C@@H](CCC(=O)N[C@@H](CS)C(=O)NCC(=O)O)C(=O)O [L-Glutathione Reduced] | 92 | 103 | 98.9 | 77.3
